# Assay results as given in the supplement of paper PMC12217912.
# This is one part of the list. Sequences were assembled here from the parent chain. Values near 0.05 are background.
# B1: TEV protease; numbered along this chain (parent)
# chain: MGESLFKGPRDYNPISSSICHLTNESDGHTTSLYGIGFGPFIITNKHLFRRNNGTLVVQSLHGVFKVKDTTTLQQHLVDGRDMIIIRMPKDFPPFPQKLKFREPQREERICLVTTNFQTKSMSSMVSDTSCTFPSGDGIFWKHWIQTKDGQCGSPLVSTRDGFIVGIHSASNFTNTNNYFTSVPKNFMELLTNQEAQQWVSGWRLNADSVLWGGHKVFMVKPEEPFQPVKEATQL
# Variants of: B1
# Assay: raw area under fraction-flipped curve 0-4 h after induction (AUC4h, not background-subtracted), DNA-recorder readout of cleavage of the substrate (dimensionless); higher = more cleavage of the substrate by the protease variant
# Conditions: temperature: 34 °C; time window: 0-4 h after rhamnose induction
# Description: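 In vivo DNA recorder in E. coli TOP10(DE3) ΔrhaA at 34 °C. Each TEVp single-site mutant (parent TEVp 0) is paired with a single-site variant of the 7-mer TEVs (canonical ENLYFQ|S). The substrate sits between flexible linkers in a Bxb1-sfGFP-TEVs-SsrA fusion, so cleavage stabilises Bxb1 and speeds flipping of a recombination array, read by NGS. The value is the raw area under the fraction-flipped curve over 0-4 h after rhamnose induction (AUC4h), with ≥20 reads per time point. It is not background-subtracted; inactive controls average about 0.047.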
# 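Note: Bxb1 expression induced with 0.2% (w/v) L-rhamnose at OD600 near 0.5, cultures sampled hourly, flipped fraction per protease–substrate barcode pair counted by paired-end Illumina sequencing.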
Variant,area with substrate ENAYFQS,area with substrate ENCYFQS,area with substrate ENEYFQS,area with substrate ENFYFQS,area with substrate ENGYFQS,area with substrate ENHYFQS,area with substrate ENKYFQS,area with substrate ENNYFQS,area with substrate ENPYFQS,area with substrate ENQYFQS,area with substrate ENSYFQS,area with substrate ENVYFQS,area with substrate ENDYFQS,area with substrate ENTYFQS,area with substrate ENWYFQS,area with substrate ENIYFQS,area with substrate ENMYFQS,area with substrate ENRYFQS,area with substrate ENYYFQS
V220D,0.0673,0.0627,0.058,0.0588,0.0641,0.0556,0.0493,0.0509,0.072,0.064,0.056,0.0842,,,,,,,
V220N,0.0547,0.045,0.0764,,,0.0565,0.111,,,0.0505,0.128,0.0762,0.0582,0.0903,0.0115,,,,
E189M,0.0535,0.0674,0.0559,0.0652,0.0876,0.0726,0.057,0.0601,0.0795,0.0774,0.0577,0.0781,0.0598,0.0394,,0.104,0.0623,0.0595,0.0554
H21L,0.062,0.0688,0.0633,,0.065,0.0593,0.0489,,0.0827,0.0537,0.0427,0.098,0.0624,0.0535,,0.068,0.0495,0.0804,
W199L,0.0576,0.0609,0.0566,0.0416,,0.06,0.0728,,,0.0617,,0.0633,0.0746,0.0465,,0.0958,,0.0654,0.0696
C131D,0.0699,,,,,0.0654,,,,0.0655,,0.0691,,0.0638,0.0403,,,,
S182K,0.0547,0.0677,0.0606,0.0558,0.0609,0.0603,0.0561,0.0558,,0.0592,0.0565,0.0487,0.0564,0.0485,0.0473,0.0781,0.0513,0.0621,0.043
S182N,0.0521,0.0492,0.0817,0.0724,,,0.0535,,,0.0581,0.0593,0.0515,0.0645,,0.0202,,,0.0539,0.0611
G39N,0.0463,0.0477,0.0352,0.0442,0.0351,0.0408,,0.0393,0.0619,0.0336,,0.0382,0.0345,0.022,,,,0.0568,0.036
G39H,0.0393,0.0385,0.049,0.0503,0.0404,0.0587,0.0421,0.0386,0.0515,0.0554,0.0528,0.0428,0.048,0.0378,0.0292,,0.0534,0.0401,0.0477
Y12G,0.0618,0.0663,0.0544,0.0662,0.0609,0.0605,0.0586,0.0588,,0.0591,0.0609,0.0728,0.0662,0.0671,0.0368,,0.0822,0.0516,
D69T,0.0811,0.0678,0.06,0.0541,0.0626,0.0559,0.0656,0.058,0.0573,0.0359,0.0689,0.0576,0.061,0.07,,,,,0.0517
